Molecular target: the molecule itself
Test: SEC-MALS

B1: Hsp27-D3 (Hsp27 S15D/S78D/S82D in the cysteine-free background) (natural protein)
chain: not shown
stoichiometry N: 2
